Assay results reported in the supplement of paper PMC4604168 (melanoma cell lines).
Some of the results follow. Repeats are few or missing, and single values can be far off.

Assays:
Experiment in all cases: cell count relative to DMSO control; melanoma cells; higher = more viable cells
Conditions in all cases: library dose: standard library concentration; 72 h
G361 = system: G361
IPC-298 = system: IPC-298
IST-MEL1 = system: IST-MEL1
LB2518-MEL = system: LB2518-MEL
LOXIMVI = system: LOXIMVI
MEL-HO = system: MEL-HO
MZ2-MEL = system: MZ2-MEL
MeWo = system: MeWo
RPMI7951 = system: RPMI7951
RVH-421 = system: RVH-421
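Further: cells treated in 1,536-well plates, then fixed and DAPI-stained, with nuclei counted from automated high-throughput microscope images.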

SMILES	cell count (G361) [%]	cell count (IPC-298) [%]	cell count (IST-MEL1) [%]	cell count (LB2518-MEL) [%]	cell count (LOXIMVI) [%]	cell count (MEL-HO) [%]	cell count (MZ2-MEL) [%]	cell count (MeWo) [%]	cell count (RPMI7951) [%]	cell count (RVH-421) [%]
Nc1cccc2c1CN(C1CCC(=O)NC1=O)C2=O (stereo not given) [lenalidomide] + C[C@]1(c2nc3c(C(N)=O)cccc3[nH]2)CCCN1 [Veliparib] (first compound 5 µM, partner dose 7 µM)	113	107	87.5	95.7	62	93.2	96.3	96.8	85.8	90.8
Clc1ccc(Nc2nnc(Cc3ccncc3)c3ccccc23)cc1 [vatalanib] + CCN(CC)CCCCNc1ncc2cc(-c3cc(OC)cc(OC)c3)c(NC(=O)NC(C)(C)C)nc2n1 [PD173074] (first compound 10 µM, partner dose 0.5 µM)	80.7	72.3	82.1	72.5	74.2	70.1	69.8	59.7	61.9	66.2
C#Cc1cccc(Nc2ncnc3cc(OCCOC)c(OCCOC)cc23)c1 [erlotinib] + Cc1cc(N2CCOCC2)cc2[nH]c(-c3c(NC[C@@H](O)c4cccc(Cl)c4)cc[nH]c3=O)nc12 [BMS536924] (first compound 4 µM, partner dose 1 µM)	53.4	52.4	77.9	54.2	64.7	59.3	82	61.3	57.2	60.9
O=C(CCCCCCC(=O)Nc1ccccc1)NO [vorinostat] + O=C(Nc1cccc(Cl)c1)Nc1ncc(CCNc2ncnc3ccsc23)s1 [SNS314] (first compound 0.4 µM, partner dose 0.004 µM)	40	66.4	52.2	59	44.8	69.9	72.1	48.1	43.8	65.9
Clc1ccc(Nc2nnc(Cc3ccncc3)c3ccccc23)cc1 [vatalanib] + Cn1nnc2c(C(N)=O)ncn2c1=O [temozolomide] (first compound 10 µM, partner dose 10 µM)	99.9	76.1	65.6	104	58.4	63.2	73.6	77.3	66.7	82.2
Clc1ccc(Nc2nnc(Cc3ccncc3)c3ccccc23)cc1 [vatalanib] + COc1ccc2c(c1)CCC1C2CCC2(C)C(NCCCCCCN3C(=O)C=CC3=O)CCC12 [U73122] (first compound 10 µM, partner dose 2 µM)	68.1	68.2	71.1	80.6	63.2	56.7	65.1	51.2	22.3	71.4
COCC[n+]1c2c(n(Cc3cnccn3)c1C)C(=O)c1ccccc1C2=O + O=C1NC(=O)/C(=C/c2ccc(-c3ccc(F)cc3O)o2)S1 [AS252424] (first compound 0.002 µM, partner dose 5 µM)	95.7	84.5	87.2	90.4	96.2	83	70.4	98.4	88.2	91.8
Clc1ccc(Nc2nnc(Cc3ccncc3)c3ccccc23)cc1 [vatalanib] + CC1(C)NC(=O)N(c2ccc([N+](=O)[O-])c(C(F)(F)F)c2)C1=O [nilutamide] (first compound 10 µM, partner dose 5 µM)	60.2	78	64.9	73.6	66.7	60.9	71.5	51.6	61	87.4
Clc1ccc(Nc2nnc(Cc3ccncc3)c3ccccc23)cc1 [vatalanib] + COc1ccc(-c2ccc3c(N4CCOCC4)nc(N4C[C@@H](C)O[C@@H](C)C4)nc3n2)cc1CO [KU0063794] (first compound 10 µM, partner dose 0.1 µM)	65.8	63.2	86.9	48	81.8	58	54.5	62.1	81.3	90.2
Nc1cccc2c1CN(C1CCC(=O)NC1=O)C2=O (stereo not given) [lenalidomide] + N#Cc1c(O)c2c(-c3ccc(-c4ccccc4O)cc3)csc2[nH]c1=O [A769662] (first compound 5 µM, partner dose 10 µM)	91	102	103	88.9	92.3	84.8	106	86.4	84.4	81.6
OCc1c[nH]c2ccccc12 [Indole-3-carbinol] + Cc1nc(Nc2ncc(C(=O)Nc3c(C)cccc3Cl)s2)cc(N2CCN(CCO)CC2)n1 [dasatanib] (first compound 4 µM, partner dose 0.02 µM)	75.9	69.2	70.9	86.5	11.6	71	45.1	71.5	35.6	52.9
OCc1c[nH]c2ccccc12 [Indole-3-carbinol] + COc1ccc2c(c1)CCC1C2CCC2(C)C(NCCCCCCN3C(=O)C=CC3=O)CCC12 [U73122] (first compound 4 µM, partner dose 2 µM)	92.5	90	80.8	99.3	63.6	94.7	79.9	61.3	22.5	90.6
OCc1c[nH]c2ccccc12 [Indole-3-carbinol] + Oc1nc(-c2ccc(C(F)(F)F)cc2)nc2c1CSCC2 [XAV939] (first compound 4 µM, partner dose 10 µM)	107	94.1	115	95.1	83.3	84.5	104	97	82.1	90.6
Nc1cccc2c1CN(C1CCC(=O)NC1=O)C2=O (stereo not given) [lenalidomide] + CCc1ccc(CCOc2ccc(CC3SC(=O)NC3=O)cc2)nc1 [pioglitazone] (first compound 5 µM, partner dose 10 µM)	85.9	94.2	86.3	90.6	95.8	98.8	105	89.5	84.6	103
Clc1ccc(Nc2nnc(Cc3ccncc3)c3ccccc23)cc1 [vatalanib] + COc1ccc(Cl)c(Nc2nc3ccccc3nc2NS(=O)(=O)c2cccc(NC(=O)C(C)(C)N)c2)c1 [XL147] (first compound 10 µM, partner dose 4 µM)	69.6	62.2	70.8	86.8	55.5	60.7	64.9	55.9	67.1	90.8
Nc1cccc2c1CN(C1CCC(=O)NC1=O)C2=O (stereo not given) [lenalidomide] + CC(C)CCN1c2nc(Nc3cc(F)c(O)c(F)c3)ncc2N(C)C(=O)C1C [BID1870] (first compound 5 µM, partner dose 1 µM)	57	77.3	83.9	98.5	77.3	78.1	92.1	72.7	77.7	82.3
OCc1c[nH]c2ccccc12 [Indole-3-carbinol] + CN(NC(=O)CC(=O)NN(C)C(=S)c1ccccc1)C(=S)c1ccccc1 [STA4783] (first compound 4 µM, partner dose 0.03 µM)	46.2	89.7	14.1	14.3	69.3	86.3	107	21.2	59	73.6
COCC[n+]1c2c(n(Cc3cnccn3)c1C)C(=O)c1ccccc1C2=O + Nc1cccc2c1CN(C1CCC(=O)NC1=O)C2=O [lenalidomide] (first compound 0.002 µM, partner dose 5 µM)	66.8	49.4	38	25.9	51.3	69.9	26.6	40.3	33.7	74.1
Cn1c(Nc2ccc(C(F)(F)F)cc2)nc2cc(Oc3ccnc(-c4ncc(C(F)(F)F)[nH]4)c3)ccc21 + Cn1nnc2c(C(N)=O)ncn2c1=O [temozolomide] (first compound 0.4 µM, partner dose 10 µM)	25.5	46.7	80.8	40.3	77.7	60.9	73.1	70	53.9	50.6
OCc1c[nH]c2ccccc12 [Indole-3-carbinol] + COc1cc(N2CCC(N3CCN(C)CC3)CC2)ccc1Nc1ncc(Cl)c(Nc2ccccc2S(=O)(=O)C(C)C)n1 [NVP-TAE684] (first compound 4 µM, partner dose 0.4 µM)	77.3	85.6	104	104	85.4	85.4	95.2	68.1	65.2	105
Clc1ccc(Nc2nnc(Cc3ccncc3)c3ccccc23)cc1 [vatalanib] + Cn1c(Nc2ccc(C(F)(F)F)cc2)nc2cc(Oc3ccnc(-c4ncc(C(F)(F)F)[nH]4)c3)ccc21 [CHIR265] (first compound 10 µM, partner dose 0.4 µM)	13.6	45.4	74.9	20.8	77.7	57.6	29.4	69	47.9	42.2
OCc1c[nH]c2ccccc12 [Indole-3-carbinol] + OCCn1cc(-c2cnc3nnn(Cc4ccc5ncccc5c4)c3n2)cn1 [PF04217903] (first compound 4 µM, partner dose 5 µM)	115	113	121	79.2	99.2	106	142	85.2	188	122
COCC[n+]1c2c(n(Cc3cnccn3)c1C)C(=O)c1ccccc1C2=O + CC(C)(C)c1cnc(CSc2cnc(NC(=O)C3CCNCC3)s2)o1 [SNS-032] (first compound 0.002 µM, partner dose 0.05 µM)	80.8	56.1	48.9	18.9	31.5	85.5	23.1	52.4	9.3	85.5
C#Cc1cccc(Nc2ncnc3cc(OCCOC)c(OCCOC)cc23)c1 [erlotinib] + CC1(C)NC(=O)N(c2ccc([N+](=O)[O-])c(C(F)(F)F)c2)C1=O [nilutamide] (first compound 4 µM, partner dose 5 µM)	74.1	77.8	80.3	59.3	73.3	84.7	84.8	69.3	66.9	87.4
